These are yes or no findings as the source states them, for the method shown. In cells and extracts the contact can be indirect. Some entries that bind do so weakly or less than the wild type. For some assays here: Sequences can lack the tags named with a protein.

By UniProt entry, the sequences of proteins in these tests, tags left out.
UniProt Q05397: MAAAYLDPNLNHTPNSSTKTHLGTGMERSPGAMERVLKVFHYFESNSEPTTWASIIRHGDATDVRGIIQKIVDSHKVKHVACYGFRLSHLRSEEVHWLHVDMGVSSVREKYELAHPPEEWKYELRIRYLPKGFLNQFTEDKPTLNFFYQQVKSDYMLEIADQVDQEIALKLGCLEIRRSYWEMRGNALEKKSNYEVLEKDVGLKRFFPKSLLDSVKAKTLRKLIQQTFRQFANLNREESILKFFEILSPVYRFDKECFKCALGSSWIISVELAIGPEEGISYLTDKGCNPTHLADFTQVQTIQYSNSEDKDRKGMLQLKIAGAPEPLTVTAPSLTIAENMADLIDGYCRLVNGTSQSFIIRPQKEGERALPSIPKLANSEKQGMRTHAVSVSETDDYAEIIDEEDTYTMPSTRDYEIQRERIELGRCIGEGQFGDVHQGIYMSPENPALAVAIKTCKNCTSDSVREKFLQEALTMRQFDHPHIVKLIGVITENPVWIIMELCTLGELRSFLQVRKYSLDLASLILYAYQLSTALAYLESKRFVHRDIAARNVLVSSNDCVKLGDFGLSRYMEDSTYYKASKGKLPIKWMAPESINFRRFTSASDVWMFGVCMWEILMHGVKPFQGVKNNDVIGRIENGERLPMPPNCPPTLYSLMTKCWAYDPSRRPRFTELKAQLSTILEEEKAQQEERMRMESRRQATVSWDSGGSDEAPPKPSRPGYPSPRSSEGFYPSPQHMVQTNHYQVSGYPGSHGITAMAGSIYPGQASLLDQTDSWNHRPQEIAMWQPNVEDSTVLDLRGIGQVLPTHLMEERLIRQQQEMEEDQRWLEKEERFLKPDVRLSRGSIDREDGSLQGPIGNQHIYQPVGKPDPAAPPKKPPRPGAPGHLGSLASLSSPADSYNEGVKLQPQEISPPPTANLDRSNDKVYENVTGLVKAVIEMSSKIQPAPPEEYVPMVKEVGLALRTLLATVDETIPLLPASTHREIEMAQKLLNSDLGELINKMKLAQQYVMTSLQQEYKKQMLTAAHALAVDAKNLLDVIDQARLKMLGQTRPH
UniProt Q9H792: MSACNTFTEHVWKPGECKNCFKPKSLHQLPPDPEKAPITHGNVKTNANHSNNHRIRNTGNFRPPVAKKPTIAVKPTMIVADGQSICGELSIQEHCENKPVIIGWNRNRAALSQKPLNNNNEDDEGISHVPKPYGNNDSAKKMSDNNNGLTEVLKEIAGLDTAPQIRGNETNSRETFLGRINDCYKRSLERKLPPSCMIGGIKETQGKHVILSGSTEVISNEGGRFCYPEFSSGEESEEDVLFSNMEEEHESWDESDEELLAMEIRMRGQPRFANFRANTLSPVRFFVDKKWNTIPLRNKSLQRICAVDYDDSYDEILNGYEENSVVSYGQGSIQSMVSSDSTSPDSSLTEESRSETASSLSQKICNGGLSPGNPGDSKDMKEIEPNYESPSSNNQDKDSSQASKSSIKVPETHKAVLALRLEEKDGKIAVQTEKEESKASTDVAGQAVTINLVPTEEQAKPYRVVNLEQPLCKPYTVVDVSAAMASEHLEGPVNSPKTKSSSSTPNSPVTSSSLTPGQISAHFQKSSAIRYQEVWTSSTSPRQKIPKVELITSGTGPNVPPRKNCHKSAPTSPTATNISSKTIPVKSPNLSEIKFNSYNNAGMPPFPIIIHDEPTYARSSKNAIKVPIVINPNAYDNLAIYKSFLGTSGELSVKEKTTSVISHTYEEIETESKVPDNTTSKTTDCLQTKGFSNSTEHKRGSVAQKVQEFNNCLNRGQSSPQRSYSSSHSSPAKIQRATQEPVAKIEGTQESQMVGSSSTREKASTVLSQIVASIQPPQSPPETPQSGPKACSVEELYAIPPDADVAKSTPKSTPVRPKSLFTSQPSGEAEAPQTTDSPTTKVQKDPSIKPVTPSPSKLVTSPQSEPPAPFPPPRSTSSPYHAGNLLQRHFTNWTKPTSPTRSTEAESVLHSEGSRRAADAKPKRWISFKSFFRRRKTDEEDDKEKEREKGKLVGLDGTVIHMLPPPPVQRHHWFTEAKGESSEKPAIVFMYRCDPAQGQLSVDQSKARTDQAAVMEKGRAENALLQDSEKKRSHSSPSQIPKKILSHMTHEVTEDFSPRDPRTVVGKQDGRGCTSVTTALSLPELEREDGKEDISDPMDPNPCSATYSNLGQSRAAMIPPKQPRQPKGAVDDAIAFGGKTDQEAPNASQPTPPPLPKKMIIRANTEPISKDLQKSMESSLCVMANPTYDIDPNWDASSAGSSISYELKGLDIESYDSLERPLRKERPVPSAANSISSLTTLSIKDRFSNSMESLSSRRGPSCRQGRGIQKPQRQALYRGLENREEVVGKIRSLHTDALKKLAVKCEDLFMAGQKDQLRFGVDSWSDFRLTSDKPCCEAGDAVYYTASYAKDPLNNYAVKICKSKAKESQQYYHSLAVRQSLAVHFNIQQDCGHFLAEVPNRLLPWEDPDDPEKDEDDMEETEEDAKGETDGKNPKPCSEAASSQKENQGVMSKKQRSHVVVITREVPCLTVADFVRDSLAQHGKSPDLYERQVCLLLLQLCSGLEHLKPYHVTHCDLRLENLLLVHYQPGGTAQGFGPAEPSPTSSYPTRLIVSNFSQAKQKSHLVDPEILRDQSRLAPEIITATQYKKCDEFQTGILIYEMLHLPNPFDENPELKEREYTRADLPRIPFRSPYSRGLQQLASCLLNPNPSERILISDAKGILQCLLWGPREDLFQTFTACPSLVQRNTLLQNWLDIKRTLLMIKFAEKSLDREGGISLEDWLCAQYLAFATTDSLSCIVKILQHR

From PMC7368075 come the findings set out here.

The target in one assay is HA-FAK (UniProt Q05397). Briefly: co-IP; lysates of 293T cells expressing the indicated plasmids (with AXL WT or kinase dead); anti-HA FAK immunoprecipitation, western blot. (In general: Immunoblotting shows a protein as a band on a membrane.)
Another assay deals with Myc-PEAK1 (human) (UniProt Q9H792). Briefly: co-IP; lysates of 293T cells expressing the indicated plasmids (with or without AXL WT or kinase dead in Fig. 6g); anti-Myc immunoprecipitation, western blot.

B1: NEDD9 expressed in 293T cells (co-immunoprecipitation with HA-FAK) (protein, UniProt Q14511 1-834)
chain: MKYKNLMARALYDNVPECAEELAFRKGDILTVIEQNTGGLEGWWLCSLHGRQGIVPGNRVKLLIGPMQETASSHEQPASGLMQQTFGQQKLYQVPNPQAAPRDTIYQVPPSYQNQGIYQVPTGHGTQEQEVYQVPPSVQRSIGGTSGPHVGKKVITPVRTGHGYVYEYPSRYQKDVYDIPPSHTTQGVYDIPPSSAKGPVFSVPVGEIKPQGVYDIPPTKGVYAIPPSACRDEAGLREKDYDFPPPMRQAGRPDLRPEGVYDIPPTCTKPAGKDLHVKYNCDIPGAAEPVARRHQSLSPNHPPPQLGQSVGSQNDAYDVPRGVQFLEPPAETSEKANPQERDGVYDVPLHNPPDAKGSRDLVDGINRLSFSSTGSTRSNMSTSSTSSKESSLSASPAQDKRLFLDPDTAIERLQRLQQALEMGVSSLMALVTTDWRCYGYMERHINEIRTAVDKVELFLKEYLHFVKGAVANAACLPELILHNKMKRELQRVEDSHQILSQTSHDLNECSWSLNILAINKPQNKCDDLDRFVMVAKTVPDDAKQLTTTINTNAEALFRPGPGSLHLKNGPESIMNSTEYPHGGSQGQLLHPGDHKAQAHNKALPPGLSKEQAPDCSSSDGSERSWMDDYDYVHLQGKEEFERQQKELLEKENIMKQNKMQLEHHQLSQFQLLEQEITKPVENDISKWKPSQSLPTTNSGVSAQDRQLLCFYYDQCETHFISLLNAIDALFSCVSSAQPPRIFVAHSKFVILSAHKLVFIGDTLTRQVTAQDIRNKVMNSSNQLCEQLKTIVMATKMAALHYPSTTALQEMVHQVTDLSRNAQLFKRSLLEMATF
With B1, the binding entry with HA-FAK is given as “binds”.

B2: mouse AXL-WT (receptor, UniProt Q00993 19-888)
chain: AHKDTQTEAGSPFVGNPGNITGARGLTGTLRCELQVQGEPPEVVWLRDGQILELADNTQTQVPLGEDWQDEWKVVSQLRISALQLSDAGEYQCMVHLEGRTFVSQPGFVGLEGLPYFLEEPEDKAVPANTPFNLSCQAQGPPEPVTLLWLQDAVPLAPVTGHSSQHSLQTPGLNKTSSFSCEAHNAKGVTTSRTATITVLPQRPHHLHVVSRQPTELEVAWTPGLSGIYPLTHCNLQAVLSDDGVGIWLGKSDPPEDPLTLQVSVPPHQLRLEKLLPHTPYHIRISCSSSQGPSPWTHWLPVETTEGVPLGPPENVSAMRNGSQVLVRWQEPRVPLQGTLLGYRLAYRGQDTPEVLMDIGLTREVTLELRGDRPVANLTVSVTAYTSAGDGPWSLPVPLEPWRPGQGQPLHHLVSEPPPRAFSWPWWYVLLGALVAAACVLILALFLVHRRKKETRYGEVFEPTVERGELVVRYRVRKSYSRRTTEATLNSLGISEELKEKLRDVMVDRHKVALGKTLGEGEFGAVMEGQLNQDDSILKVAVKTMKIAICTRSELEDFLSEAVCMKEFDHPNVMRLIGVCFQGSDREGFPEPVVILPFMKHGDLHSFLLYSRLGDQPVFLPTQMLVKFMADIASGMEYLSTKRFIHRDLAARNCMLNENMSVCVADFGLSKKIYNGDYYRQGRIAKMPVKWIAIESLADRVYTSKSDVWSFGVTMWEIATRGQTPYPGVENSEIYDYLRQGNRLKQPVDCLDGLYALMSRCWELNPRDRPSFAELREDLENTLKALPPAQEPDEILYVNMDEGGSHLEPRGAAGGADPPTQPDPKDSCSCLTAADVHSAGRYVLCPSTAPGPTLSADRGCPAPPGQEDGA
Regarding B2, the binding result with Myc-PEAK1 (human) is “binds”.
